Experimental data reported in publication PMC9574860, “Chemical Toolkit for PARK7: Potent, Selective, and High-Throughput” (Journal of Medicinal Chemistry, 2022).
About 400 (5.1%) of roughly 7,900 compounds showed an effect of 50% or more. This is one part of the list.

What follows are molecules tested against Parkinson's disease protein 7 (PARK7/DJ1) (human, UniProt Q99497) (assay: primary screen, percent inhibition; read as competition with a fluorescent probe by fluorescence polarization; higher = more effect of the substance). Conditions: 100 µM.
Experimental: The screen was conducted using the conditions as described above in 1536-well plates (Corning 3724) with a reaction volume of 8 μL per well. The compound library containing 7887 covalent fragments was purchased at Enamine Ltd. and received as 100 mM DMSO stocks in 384 well LDV Echo plates (Labcyte LP-0200). Stock solutions of 0.26 μM PARK7 and 80 nM JYQ-107 were prepared. Using a Labcyte Echo550 acoustic dispenser, 8 nL of the DMSO stock solution of the library compounds was transferred from the source plates into the empty 1536-well screening plates to obtain a 100 μM final compound concentration. Next, PARK7 (6 μL, final concentration 0.2 μM) was dispensed using a Biotek MultiflowFX liquid dispenser and incubated for 2 h, followed by dispensing the probe JYQ-107 (2 μL, final concentration 20 nM). After 2 h incubation, the FP signal was recorded on a BMG Labtech PHERAstar plate reader (λex/em 480/520 nm). The relative loss of FP signal compared with reference controls was used to calculate the remaining enzyme activity.

Sequence of Parkinson's disease protein 7 (PARK7/DJ1) (Q99497 whole entry, looked up, the tested form may be a part): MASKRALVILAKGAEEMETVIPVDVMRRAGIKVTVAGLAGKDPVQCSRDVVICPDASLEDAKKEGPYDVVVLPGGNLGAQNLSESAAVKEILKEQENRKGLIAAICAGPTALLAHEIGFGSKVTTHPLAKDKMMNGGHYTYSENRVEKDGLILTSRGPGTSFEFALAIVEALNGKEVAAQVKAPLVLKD

Row | SMILES | Inhibition % [%]
1 | Cn1cc(C=C(C#N)c2nc3ccccc3n2C)cn1 | 2.9
2 | Cc1nc(C)c(Cn2c(-c3cccnc3)noc2=O)s1 | 27.6
3 | O=S(=O)(F)c1ccc2cn[nH]c2c1 | 72.5
4 | CC1(C)CN(c2ccc(C#N)nc2)CCS1 | 9.73
5 | C=CC(=O)NC1CCN(c2cccnn2)CC1 | 14.8
6 | O=S(=O)(C=Cc1ccc(Cl)cc1)N1CCCCC1 | 5.97
7 | C=CC(=O)NCc1cccnc1N1CCCC1 | 9.31
8 | N#CC(=Cc1ccccc1)C(=O)N1CCC(C(N)=O)CC1 | 9.67
9 | O=C1CC(c2cccnc2)=NO1 | 6.84
10 | Cl.Cl.NC1CCCN(C(=O)C=Cc2ccccn2)C1 (stereo not shown) | 12.6
11 | O=C(CCl)Nc1nc(-c2cc(F)ccc2F)cs1 | 9.23
12 | CC(C)(C)c1ccc(S(=O)(=O)N[C@H]2CCOC2=O)cc1 | 8.44
13 | Cl.ClCCn1ccnc1 | 2.86
14 | O=C(CCl)NCc1ccc(Cl)cc1 | 2.75
15 | COc1cccc2c1CCC2Nc1ccc(C#N)nc1 (stereo not shown) | 12.3
16 | C=CC(=O)N[C@H]1COC[C@H]1n1ccnn1 | 11.8
17 | CCOC(=O)C1CCCN(C(=O)CCl)C1 (stereo not shown) | 74.4
18 | Cl.O=C(Oc1ccccc1)N1CCCNCC1 | 22.2
19 | O=C1CCc2cc(OS(=O)(=O)c3ccccc3)ccc2N1 | 1.67
20 | CC1CC(Sc2nnnn2C2CCCC2)C(=O)O1 (stereo not shown) | 5.08
21 | O=C1CC(c2ccc(Cl)cc2)N1 (stereo not shown) | 4.44
22 | C=CC(=O)N1CCCCC1c1ccco1 (stereo not shown) | 8.17
23 | C=CC(=O)N1CCN(S(=O)(=O)CC)C[C@H]1C | 12.6
24 | Cc1nc(S)c2cccnc2n1 | 2.7
25 | C=CC(=O)NC1CCCC2OCCC12 (stereo not shown) | 8.57
26 | CS(=O)(=O)OCCC1CCCO1 (stereo not shown) | 29.3

Row | SMILES | Inhibition % [%]
27 | O=C(CCl)N1CCN(S(=O)(=O)c2ccc(F)cc2)CC1 | 14.2
28 | O=C(NC1CCN(C2CCOC2=O)CC1)c1ccccc1 (stereo not shown) | 9.18
29 | C=CC(=O)N1C[C@H]2CCCC[C@H]2C1 | 13.7
30 | CN(C)c1ccc(C=CC#N)cc1 | 10.9
31 | OB(O)c1cccc(OC2CCCC2)c1 | 11.7
32 | COCc1ccc(B2OC(C)(C)C(C)(C)O2)cc1F | 4.89
33 | C=CC(=O)NCc1ccnn1C | 8.81
34 | O=C1CN=C(S)N1C1CCCCC1 | -1.4
35 | CC(C)Oc1ccc(O)cc1B1OC(C)(C)C(C)(C)O1 | 5.32
36 | O=c1[nH]c(=O)n(CCC2OCCO2)cc1Cl | 5.36
37 | O=S(=O)(C=Cc1ccccc1)Nc1cc(C(F)(F)F)n[nH]1 | 5.76
38 | OC1(CCC2CO2)CCC1 (stereo not shown) | 7.16
39 | CN(CC1CC1)S(=O)(=O)C=Cc1ccccc1 | 7.7
40 | C=CC(=O)N1CCN(C(=O)NC2CCCCC2)CC1 | 10.9
41 | CCN(c1ccc(C(F)(F)F)c(C#N)n1)C1CCOC1 (stereo not shown) | 8.44
42 | Cn1ncc2c(S)ncnc21 | 6.07
43 | CC1(C)OB(c2ccc(SC(F)F)cc2)OC1(C)C | 12.5
44 | O=c1cnc2ccccc2n1CCS(=O)(=O)F | 13.8
45 | COc1ccc(NCCS(=O)(=O)F)cc1.Cl | 44.4
46 | C=CC(=O)N1CCC(CC(N)=O)CC1 | 5.67
47 | C=CC(=O)NCCc1nccs1 | 8.81
48 | CC1(C)OB(c2cccc(CN3CCCC3)c2)OC1(C)C.Cl | 6.39
49 | N#Cc1ncn(CC(=O)NCC(F)(F)F)n1 | 8.99
50 | Cc1c(C#N)c(NC(=O)CCl)n(Cc2ccco2)c1C | 36.7
51 | C=CC(=O)N1CCC(c2cnn(C)c2)CC1 | 5.8
52 | O=C(CCl)NC(=O)OCc1ccccc1 | 33.1

Row | SMILES | Inhibition % [%]
53 | O=C(N1CCCC1C1CCCCC1)n1ccnc1 (stereo not shown) | 5.92
54 | O=C(CN1CCSC1=O)NC1CCc2ccccc21 (stereo not shown) | 5.18
55 | O=C(Nc1ccc2c(c1)B(O)OCC2)C1CCCCO1 (stereo not shown) | 9.99
56 | C=CC(=O)N1Cc2ccccc2C1 | 7.43
57 | Cc1ccc(C(=O)C=Cc2cc(C#N)n(C)c2C)o1 | 7.22
58 | C=CC(=O)N1CC(C)CC1c1ccccc1 (stereo not shown) | 4.59
59 | C=CS(=O)(=O)c1ccc(F)cc1 | 13
60 | CCN(C1CC1)S(=O)(=O)C=Cc1ccccc1 | 4.44
61 | C=CC(=O)NC1(C(N)=O)CCCOC1 (stereo not shown) | 3.4
62 | N#Cc1ccc(NC(=O)CCCCl)cc1 | 2.77
63 | N#Cc1ncc(Cl)cc1Cl | 8.09
64 | Nc1nnc(SC2CCOC2=O)s1 (stereo not shown) | 3.23
65 | CC(C)c1cccc(NC(=O)Cn2cnc(C#N)n2)c1 | -0.97
66 | O=C(CCl)NCCC1=CCCCC1 | 31.7
67 | COc1c(S(=O)(=O)n2cccn2)ccc(Cl)c1Cl | 0.301
68 | NC(=O)C1OC12CCCCC2 (stereo not shown) | 3.87
69 | CSc1ccc(C=C(C#N)C(=O)N2CCCC2)cc1 | 15.3
70 | CC1(CCl)NC(=O)c2ccccc2N1 (stereo not shown) | 4.81
71 | N#Cc1nc(F)ccc1O | 55.2
72 | Cc1c(C=C2Oc3cc(O)ccc3C2=O)cc(C#N)n1C | 1.38
73 | C=CC(=O)NCc1ccc2c(c1)CCS2(=O)=O | 7.72
74 | Cc1cc(NS(=O)(=O)c2ccc(S(=O)(=O)F)cc2)c[nH]c1=O | 92.6
75 | O=S(=O)(C=Cc1ccc(Cl)cc1)NC1CCCC1 | 5.87
76 | N#Cc1ccc(NCC2CCSCC2)nn1 | 9.68
77 | Cc1cc(=O)oc2c(C)c(OCC3CO3)ccc12 (stereo not shown) | 8
78 | CC(=O)N(C)Cc1ccc(C(=O)CCl)cc1 | 79.8

Row | SMILES | Inhibition % [%]
79 | Cl.ClCCCc1nc2ccccc2[nH]1 | 0.892
80 | C=CCOc1cncc(B2OC(C)(C)C(C)(C)O2)c1 | 0.186
81 | O=C(O)c1cccnc1S | 5.3
82 | O=C(N1CCCC1Cc1ccccc1)n1ccnc1 (stereo not shown) | 2.39
83 | CCc1ccc(C=CS(=O)(=O)N2CCCC2C(=O)O)cc1 (stereo not shown) | 0.98
84 | N#Cc1ccc(NCC(=O)N2CCc3ccccc32)cn1 | 1.56
85 | C=CC(=O)NC(C)(C)c1nc(C)cs1 | 8.42
86 | N#Cc1c(NC(=O)CC2CCCCC2)nc2n1CCS2 | 6.61
87 | C=CC(=O)NCCc1nsc2ccccc12 | 0.371
88 | Cc1occc1-c1nnc(SC2CC(C)OC2=O)o1 (stereo not shown) | 3.03
89 | N#Cc1cccc(OC(F)F)n1 | 6.74
90 | N#Cc1ccc(C2OCCO2)cc1 | 3.68
91 | NC(=O)C1CCN(C2CCOC2=O)CC1 (stereo not shown) | 7.51
92 | CC(NC(=O)CCl)c1ccc(-c2ccccc2)cc1 (stereo not shown) | 3.9
93 | O=S(=O)(F)c1ccc(S(=O)(=O)NC2CCCC(O)C2)cc1 (stereo not shown) | 21.4
94 | C=CC(=O)N(Cc1cccnc1)Cc1ccsc1 | 14.7
95 | N#Cc1ncn(Cc2cccc(F)c2F)n1 | 3.23
96 | O=C(CCl)NC(=O)c1ccc[nH]1 | 26
97 | C=CC(=O)N1CCCc2cc(OC)ccc2C1 | 4.79
98 | O=C(CCl)NCC1Cc2ccccc2O1 (stereo not shown) | 26.5
99 | CN(C(=O)CCCl)c1ccccc1 | 9.16
100 | O=C(NC1CN(c2ccccc2)C1=O)c1ccnc(F)c1 (stereo not shown) | 3.78
101 | Cc1ccc(S(=O)(=O)OCC(F)(F)F)cc1C(N)=O | 7.17
102 | Cc1noc(C)c1S(=O)(=O)Oc1cccc2c1CCC2=O | 12.8
103 | C=CC(=O)NCc1cc2ccccc2s1 | 13.3
104 | CC1(C)OB(c2ccc3c(c2)COC(=O)N3)OC1(C)C | 3.95

Row | SMILES | Inhibition % [%]
105 | Cc1ccc(C)c(S(=O)(=O)CCCl)c1 | 2.68
106 | N#Cc1ncn(CCOc2c(Cl)cccc2Cl)n1 | 5.66
107 | CC1(C)OB(c2cccc(-c3ncc[nH]3)c2)OC1(C)C | 0.986
108 | CC1(C)OB(c2ccc(-c3cn[nH]c3)cc2)OC1(C)C | 0.918
109 | Clc1cccc(Cl)c1OCC1CO1 (stereo not shown) | 9.6
110 | C=CC(=O)N1CCc2ccsc2C1C (stereo not shown) | 5.26
111 | C=CC(=O)NCC1CC(=O)N(C)C1 (stereo not shown) | -0.151
112 | O=C(O)C1CCN(S(=O)(=O)C=Cc2ccccc2)C1 (stereo not shown) | 10.3
113 | C=CC(=O)N1CCN(C)CC1C#N (stereo not shown) | 24.7
114 | Cc1ccn(S(=O)(=O)c2ccc(Cl)c(Cl)c2)n1 | 8.29
115 | Cc1oncc1Cn1c(-c2ccncc2)noc1=O | 59.3
116 | O=C(CCl)N1CCOC1=O | 31.6
117 | C=CC(=O)N1CC(CC#N)C1 | 7.7
118 | C=CC(=O)Nc1nc2cc3c(cc2s1)OCCO3 | 1.49
119 | Cc1ccc(NC(=O)NC(=O)CCl)cc1 | 8.73
120 | N#Cc1ccc(N2CCCC2C(=O)NC2CC2)cn1 (stereo not shown) | 8.87
121 | O=C(CCl)NCC1CN(Cc2ccccc2)CCO1 (stereo not shown) | 27.2
122 | CC(C)NC(=O)c1ccccc1NC(=O)CCl | 2.5
123 | Cc1oc(C(=O)O)cc1C(=O)CCl | 92.2
124 | O=c1[nH]nc(-c2ccco2)o1 | 50.5
125 | N#CNC(=O)c1ccccc1Cl | 5.75
126 | Cc1cnccc1CCNC(=O)c1cccnc1S | 4.25
127 | O=c1[nH]nc(S)n2cccc12 | 26.7
